Assay results: PMC4336329 (PLoS ONE, 2015)
Among all 310,000 compounds or so, about 14,000 (4.5%) showed an effect of 50% or more. The effect is printed as a negative number. The list shows a part of the results.

What follows are compounds tested against human ether-à-go-go-related gene (hERG) potassium channel (human, UniProt Q12809) (assay: primary screen, population patch clamp on CHO cells stably expressing hERG).
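Note: peak tail current of the secondary pulse compared with the same well before compound.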

human ether-à-go-go-related gene (hERG) potassium channel, sequence (Q12809 whole entry, looked up): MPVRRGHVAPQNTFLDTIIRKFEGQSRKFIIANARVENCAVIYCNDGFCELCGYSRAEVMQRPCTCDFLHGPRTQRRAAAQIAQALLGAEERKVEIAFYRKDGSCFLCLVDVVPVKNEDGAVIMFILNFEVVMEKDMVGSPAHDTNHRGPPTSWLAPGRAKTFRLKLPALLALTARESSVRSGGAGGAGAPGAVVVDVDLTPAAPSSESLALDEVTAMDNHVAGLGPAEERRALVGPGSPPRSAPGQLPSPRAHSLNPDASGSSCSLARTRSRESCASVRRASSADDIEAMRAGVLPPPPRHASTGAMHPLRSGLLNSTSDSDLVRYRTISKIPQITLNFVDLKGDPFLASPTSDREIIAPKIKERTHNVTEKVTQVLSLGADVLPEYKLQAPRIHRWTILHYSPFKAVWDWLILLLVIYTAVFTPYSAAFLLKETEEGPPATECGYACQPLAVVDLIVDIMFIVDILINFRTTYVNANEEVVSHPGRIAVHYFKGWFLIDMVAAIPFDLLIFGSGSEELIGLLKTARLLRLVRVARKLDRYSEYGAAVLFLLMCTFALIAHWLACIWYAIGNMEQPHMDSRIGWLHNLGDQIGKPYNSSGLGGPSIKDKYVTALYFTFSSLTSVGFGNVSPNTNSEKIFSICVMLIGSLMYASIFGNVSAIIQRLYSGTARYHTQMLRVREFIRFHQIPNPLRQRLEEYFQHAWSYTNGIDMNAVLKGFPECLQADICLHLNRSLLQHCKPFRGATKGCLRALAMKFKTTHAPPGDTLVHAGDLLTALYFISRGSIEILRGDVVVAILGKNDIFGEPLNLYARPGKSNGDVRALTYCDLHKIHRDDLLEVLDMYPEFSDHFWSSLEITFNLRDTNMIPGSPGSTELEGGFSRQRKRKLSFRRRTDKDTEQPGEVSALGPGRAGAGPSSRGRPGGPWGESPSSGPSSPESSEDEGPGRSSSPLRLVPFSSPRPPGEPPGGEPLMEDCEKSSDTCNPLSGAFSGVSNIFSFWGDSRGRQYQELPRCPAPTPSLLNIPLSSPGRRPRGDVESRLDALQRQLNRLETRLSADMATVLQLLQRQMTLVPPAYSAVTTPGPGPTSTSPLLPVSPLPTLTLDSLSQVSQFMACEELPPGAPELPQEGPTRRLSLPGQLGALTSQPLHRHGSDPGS

Row | Compound | hERG current change (%, negative = inhibition) at 10uM [%]
1 | COc1ccc(CCNC(=O)CCC(=O)N2CCOc3ccccc32)cc1OC | -16.8
2 | COC(=O)c1ccc(C2CC(=O)Nc3cc(OC)c(OC)cc32)cc1 (centres unmarked) | -29.2
3 | O=C(CN1CCC(NC(=O)Nc2ccccc2)CC1)Nc1ccc([N+](=O)[O-])cc1 | -64.4
4 | CC(=O)N(CCc1ccccc1)Cc1cc2cc(C)ccc2[nH]c1=O | -3.82
5 | CC1CC1C(=O)NCCc1ccc(Cl)cc1 (centres unmarked) | -0.482
6 | CC(C)c1ccccc1NC(=O)Nc1ccc(F)cc1F | 11.7
7 | CCCCCCC(=O)Oc1cccc(N2C(=O)C3CCCCC3C2=O)c1 (centres unmarked) | 15.3
8 | CCCCC/C=C\C[C@H](O)/C=C/c1cccc(C[C@H](O)CCCCO)n1 | 5.04
9 | O=C(Nc1sc(-c2ccccc2)cc1C(=O)O)c1ccccc1 | 35.2
10 | CC1C(OC(=O)CCC(=O)NC(C)(C)CO)O[C@H]2OC3(C)CC[C@H]4[C@H](C)CCC1C24OO3 (some centres unmarked) | 18.7
11 | CNC(=O)c1[nH]cnc1C(=O)N[C@@H](CCCCNC(=O)OC(C)(C)C)C(=O)OC(C)(C)C | 6.13
12 | O=C(COC(=O)CCCNC(=O)c1ccc(Cl)cc1)NC1CC1 | 12.7
13 | O=C(CCN1C(=O)c2ccccc2C1=O)N1CCN(Cc2ccccc2)CC1 | -22.8
14 | CC(=O)NC(CC(=O)N(C)Cc1c(F)cccc1Cl)c1ccccc1 (centres unmarked) | -4.66
15 | CCNC(=O)C1CC(=O)N(Cc2ccc3c(c2)OCO3)C(=Nc2ccc(F)cc2)S1 (centres unmarked) | 15.5
16 | CCOC(=O)CC(=O)CSc1ncnc2c1cnn2-c1ccccc1 | 9
17 | Cc1cccc(S(=O)(=O)N2CCC(CO)(Cc3ccccc3)CC2)c1 | -2.74
18 | CC1=CC2=NC(=O)/C(=C\c3cccn3CCOc3cccc(C)c3)C(=N)N2O1 | -1.66
19 | Nc1cc(Cl)ccc1Nc1ccncc1 | 5.65
20 | Cc1ccc(S(=O)(=O)N2CCN(Cc3nc4sc5c(c4c(=O)[nH]3)CCCC5)CC2)cc1 | -21.3
21 | COc1cc2c(cc1NC(=O)C(C)OC(=O)C1CC(=O)N(Cc3ccco3)C1)oc1ccccc12 (centres unmarked) | -1.77
22 | CCc1ccc(-n2c(=O)c3c(C)c(C)sc3n(CC(=O)NCC3CCCO3)c2=O)cc1 (centres unmarked) | 5.92

Row | Compound | hERG current change (%, negative = inhibition) at 10uM [%]
23 | CC(=O)Nc1ccc(S(=O)(=O)N2CCCN(c3nc(C)cc(C)c3C#N)CC2)cc1 | 8.86
24 | O=C(C1CCC(=O)N(C2CC2)C1)N1CCN(c2ccccc2Cl)CC1 (centres unmarked) | 13.1
25 | O=S(=O)(NCc1cccnc1)c1cccn1-c1ncc(C(F)(F)F)cc1Cl | -9.38
26 | CCCc1ccc(OCC(=O)Nc2cc(S(=O)(=O)CC)ccc2O)cc1 | -58.1
27 | Cc1ccc(C(C)C)c(OCC(=O)NN=C2CCCCCCC2)c1 | 0.119
28 | CCC(C)OC(=O)c1c(N)n(Cc2cccs2)c2nc3ccccc3nc12 (centres unmarked) | -2.01
29 | O=[N+]([O-])c1ccc2c(c1)CNc1ccccc1O2 | -16.7
30 | COc1ccccc1NC(=O)Nc1ccc2[nH]c(=O)[nH]c2c1 | 23.3
31 | CCOC(=O)c1ccc(NC(=O)N2CCc3ccccc32)cc1 | -3.07
32 | Cc1cc(C(=O)NC(=S)Nc2cccc(C(=O)O)c2C)ccc1[N+](=O)[O-] | 25.9
33 | COCCN(C(=O)COC(=O)COc1ccc(Cl)c(C)c1)c1c(N)n(Cc2ccccc2)c(=O)[nH]c1=O | -25.1
34 | CCOc1ccc(S(=O)(=O)N2CCN(C)CC2)c(C)c1C | -11.4
35 | CCCCNC(=S)NNC(=O)c1cccnc1 | -4.29
36 | COC(=O)N(c1ccccc1)P1(=S)OCCO1 | 17.5
37 | CCCSc1ccc([C@@H]2[C@H]3C(=O)N(CC)C(=O)[C@H]3[C@]3(C(=O)OC)CCCN23)cc1.O=C(O)C(F)(F)F | -14.7
38 | COc1ccccc1S(=O)(=O)Cc1ccc(C(=O)N2CCN(c3ccccc3)CC2)o1 | -45.8
39 | COc1ccc(OCc2cc(C(=O)NCC(C)(C)N3CCOCC3)no2)c(Cl)c1 | -31.8
40 | O=c1c2ccccc2nc2n1CCO2 | 10.2
41 | COC(=O)c1cc(S(=O)(=O)NCC2CCN(Cc3ccc(C)cc3)CC2)cn1C | -52
42 | COc1cccc(C(=O)CC(C#N)c2ccc(F)cc2)c1 (centres unmarked) | -12.2
43 | CCCn1c(/N=C/c2cc(OC)ccc2O)nc2ccccc21 | 15.5
44 | O=C(Cc1c[nH]c2ccccc12)Nc1cccc(S(=O)(=O)N2CCCCC2)c1 | -13.6

Row | Compound | hERG current change (%, negative = inhibition) at 10uM [%]
45 | Nc1ccccc1-[n+]1c(-c2ccccc2)cc(-c2ccccc2)cc1-c1ccccc1.[O-][Cl+3]([O-])([O-])[O-] | -50.9
46 | O=C1CCCN1c1ccc(S(=O)(=O)N2CCCCC2)cc1[N+](=O)[O-] | 5.24
47 | CSCCC(NC(=O)c1ccco1)C(=O)N1CCC(C(N)=O)CC1 (centres unmarked) | 2.29
48 | Cc1cccnc1NC(=O)C1CCC1 | 23.7
49 | C/C(=N\NC(=O)c1cccc(N2CCCC2=O)c1)c1ccc(N)cc1 | 12
50 | Cc1cccc(CN2CCCC(C(=O)c3ccc4c(c3)OCO4)C2)n1 (centres unmarked) | -49.2
51 | CN(C(=O)COC(=O)c1ccc(Cl)c(N)c1)c1ccccc1 | 3.01
52 | CC1(C)Cc2c(sc3ncn(N)c(=N)c23)CO1 | 9.31
53 | COCCOC(=O)c1c(C)oc2ccc(OC(=O)c3ccc4c(c3)OCO4)cc12 | 14.6
54 | CN(C)N1C(=O)CC(C)(c2ccc([N+](=O)[O-])cc2)C1=O (centres unmarked) | -0.575
55 | O=[N+]([O-])c1cccc(CSc2nc3ccccc3[nH]2)c1 | -15.6
56 | O=C(COC(=O)COc1ccc(Br)cc1)Nc1cccnc1Cl | 17.8
57 | CCn1c(SCC(=O)Nc2ccc3c(c2)OCCO3)nnc1-c1cccnc1 | 12.9
58 | Cn1c(N2CCN(c3ccccn3)CC2)nc2c1c(=O)n(Cc1ccccc1Cl)c(=O)n2C | 13.9
59 | Cc1ccc(S(=O)(=O)Cn2nnnc2C(CC(C)C)N2CCN(c3ccccc3)CC2)cc1 (centres unmarked) | 15.8
60 | CCc1ccccc1NC(=O)CN1CCN(C(=O)c2cccc(-n3cnnn3)c2)CC1 | -65
61 | COCCN(C(=O)CSc1n[nH]c(-c2ccc(OC)cc2)n1)c1c(N)n(Cc2ccccc2)c(=O)[nH]c1=O | 3.21
62 | COc1ccc2nc(NC3=NCCN3)sc2c1 | -0.215
63 | COc1cccc2cc(C(=O)N3CCc4ccccc4C3)c(=O)oc12 | 11.1
64 | O=C(C1CC(c2ccc(F)cc2)=NO1)N1CCCCC1 (centres unmarked) | 4.94
65 | O=C1NC(=O)C(CCc2ccncc2)(CCc2ccncc2)C(=O)N1Cc1ccc(F)cc1 | -76.6
66 | NNC(=O)c1cc2ccccc2[nH]1 | 15.3

Row | Compound | hERG current change (%, negative = inhibition) at 10uM [%]
67 | CC(C)CN(C(=O)COC(=O)c1nc(Cl)ccc1Cl)C1CCS(=O)(=O)C1 (centres unmarked) | 14
68 | COc1ccc(OC)c(NC(=S)NCCN2CCOCC2)c1 | 8.88
69 | O=C(NCc1ccncc1)C(=O)N/N=C/c1ccccc1OCc1ccccc1 | 8.91
70 | CCOC(=O)N1CCC(N2Cc3cccc(C(=O)Nc4ccccc4OC)c3C2=O)CC1 | -79.2
71 | Cc1ccc(/C=C/c2ccc(N(C)C)cc2)[n+](C)c1.[I-] | -25.5
72 | Cc1ccc(NC(=O)N(CCCN2CCOCC2)Cc2cc3cc4c(cc3[nH]c2=O)OCO4)cc1 | -42
73 | Cc1csc(/N=C/N(C)C)c1C#N | 9.31
74 | CCOc1ncccc1C(=O)OCC(=O)NCc1ccc2c(c1)OCO2 | 1.22
75 | O=c1c2ccccc2nc(-c2ccccc2Cl)n1-c1ccc(O)cc1 | 5.92
76 | O=C(O)[C@H]1Cc2ccccc2CN1S(=O)(=O)c1ccc(F)cc1 | 19
77 | Cc1cc(/C=N/Nc2nc(N3CCOCC3)nc(N3CCOCC3)n2)c(C)n1-c1ccccc1 | 7.66
78 | Cc1ccc(C(=O)Nc2ccc3c(c2)OCO3)cc1S(=O)(=O)N1CCOCC1 | -33.1
79 | O=C(Nc1nnc(-c2ccc3c(c2)CCCC3)o1)c1ccccc1 | -14.6
80 | CN(c1ccccc1)S(=O)(=O)c1cccc(NC(=O)Cc2n[nH]c(=O)c3ccccc23)c1 | -30.9
81 | CN1CCN(C(=O)c2ccc3c(=O)n(CCc4ccccc4)c(=S)[nH]c3c2)CC1 | -5.84
82 | COc1cccc(C(=O)/C=C/Nc2cc(C)ccc2O)c1 | -6.19
83 | COc1ccc(NC(=O)CN(C)S(=O)(=O)c2ccc(C)cc2)c([N+](=O)[O-])c1 | -12.8
84 | O=C(O)c1ccc(CSc2nnc(-c3ccco3)n2-c2ccccc2)cc1 | 22.6
85 | COc1ccc2cc(CCNC(=O)c3ccc(S(=O)(=O)N4CCCC4)cc3)c(=O)[nH]c2c1 | -8.62
86 | Cc1ccc(C)c(S(=O)(=O)N2CCC(c3nc4c(nnn4Cc4ccc(F)cc4)c(=O)[nH]3)CC2)c1 | 2.18
